Test results reported in the RNAGym collection of RNA variant scans (doi:10.7554/elife.90254).
The source gives no read counts; variants with many changes may rest on few reads.

B1: LINE1-mini (parent)
chain: GGCAGAGCUCAACACAGCGUGGCAAAGUGGCUGUGGCUAGACUGCC

Variants of: B1
Assay: self-cleavage, relative activity (ratio to wild type); higher = more cleavage; in vitro, sequencing; the parent is a self-cleaving ribozyme

Variant | self-cleavage
GGCAGAGCUCAACACAUCGUGACAAAGUGGCUGUGGCUAGACUUCC | 0.05
GGCAGAGCUCAAAAACGCGUGGCAAAGUGGCUGUGGCUAGACUGCC | 0.09
GGCAGAGCUCAUGACAGCGUGGGAAAGUGGCUGUGGCUAGACUGCC | 0.58
GGCAGAGGUCAACAAAGCGUGGCAAAGUUACUGUGGCUAGACUGCC | 0.2
GGCAGAGAUAAACACAGCAUGGCAAAGUGGCUAUGGCUAGGCUGCC | 0.01
GGCAGAGCUCAUCACAGCGUGGCAAAGUUCCUGUGGCUAGACUGGC | 0.02
GGCAGAGGUCAGCACAGCGUGACAAAGUAGCUGUGGCUAGACUGCU | 0.02
GGCACGGCUCAACACAGCGUGGCAAAGUGGCUGUGGCUAGACUGCU | 0.04
GGCAGAUAUCAACACAGCGUGGCAAAGUGGCUGUGGCAUGACUGCC | 0.38
GGCGGAGCUCCACACAGCGUGGCAAAGUGACUGUGGCUAGACUGCA | 0
GCUGGAGCUCAACACAGCGUGGCAAAGUGGCUGUGGCUGGACUGCC | 0.02
GGGAGAGCUAAACACAGCGUGGCAAAGUGGCUGUGGCUAGAAUGAC | 0.01
GGCAUAGCUCAACACAGCGUGGAAAAGUGGCUGUGGUUUGACUGCC | 0
CGCCGAGCUCAACACAGCGUGGCAAAGUGGCUGUGGCAAGACUGCC | 0.05
GGCAGAGGACAACACAGCGUGGAAAAGUGGCUGUGGCUAUACUGCC | 0.09
GGAAGACCUCUACACAGCUUGGCAAAGUGGCUGUGGCUAGACUGCC | 0.01
GGGAGAGCUUAACACAGCGUGGCAAAGUGCCUGUAGCUAGACUGCC | 0.02
GGCAGAGCUCGACACAGUGUGGCACAGUGGCUGUGGCUAGACCGCC | 0
CGCAGAGCUCAACACAGCCUGGCAAAGUGCCCGAGGCAAGACUGCC | 0.01

Variant | self-cleavage
GGCAGAGCUCUACACAGCGGGGCAAAGUGGCUGUGGUUAGACUGCC | 0.02
GGCAGCGCUCAACACAGCCUGGCAAAGUGGCUUUGGCUAGACUGCC | 0.12
GGCAGAGCUCAACAGAGCGUGGCAAAGUGGCACUGGCUAGACUGCC | 0.15
GGCAGUGCUCAACACAGCGGGGCAAAGUGCUUGUGGCGAUCCUGCA | 0.03
GACAGAGCUCUACAAUGCGUGGCAAAGUGGCCGUGGCUAGACUGCC | 0.06
UACAGAACUCAACAAAGCGUGGUGAAGUGGCUGUGGCUAGACUGCC | 0.09
GGCAGAGCUCAAGUCAGCGUGGCCAAGUGGCUGUGGCUAGACUGCC | 0.24
GGCAGAGCUCAACACAGCCUGGCAAAGUCGAGGUCGCUAGACGGCC | 0.02
GGCAGAGCUCAACGCACCGUGGCAAAGUCGGUGUGGCUCGACUGCC | 0.02
GUCAGAGCUCAACACAGCGUGGCAAAGUGGCUGUGGCCAGACUGCG | 0.03
GUCAGAGCUCAACAUAUCGUGGCUACGUGGCUGUCGCUAGACUGCC | 0.07
GGCAGAGCUCAACCCAGCGUGGCAAGGUGGCUCUGGCUAGACUGCC | 0.02
GACAGAGAACAACACAGCGUGGCCAAGUGGCUGUGGCUAUACUGCC | 0.4
GGAAGAGCCCAACACAGCGUGGCGAAGCGGCUGUCGCUCGACUGCC | 0.03
GGCAGAGCUUAACACAGCGUGGCCUAUUGGCUGUGGAUAGACUGCC | 0.02
GGCAGAGCUCAAAACCGCGUCGCAAAGUCGCUGUGGCUAGACUGCC | 0.05
GGCAGAGCUCAACACAGCGUGCCAAAGUGGAUGUUGCUAGACUGCC | 0.04
GGCAGAACUCAACCCAGCGUGGCAAAGAGGCUGAGGCUAGACUGCC | 0.01
GGCAGAGCUCAACACAGCGUGGAAAAGCGGCUGUGGGUAGACUGCC | 0.01

Variant | self-cleavage
GGCAAAGCUCAAUACAGCGUGGCAAAGUGGCUGUGGAUAGACUGCC | 0.74
GGCAGAGCUCAACACAGCAUGGCAACGUGGCUGUGGCUACACUGCC | 0.03
GGCAGAGCUCAACACGGCGUGGUAAAGUGGCUGUGGCUAGACCGCC | 0.11
GGCAGAGCUCAACUCAGUGUGGCAAAGAGGCUGUGGCUAGAUUGCC | 0.05
GGGAGAGCUCAACACAGUGAGGCAAAGUGGCUGGGGCUAGACUGCC | 0.02
GGUAGAGCUCAACACAGCGUGUCAAAGUGGCUGUGCCUAGACUGCC | 0.03
GUCAAAGCUCAACACAGCGUGGCAAAGUGGCUAUGGCUAGACUGCC | 0.03
GGUAGAGGUCAACACAGCGUGGCUAAGUGGCUGUGGGUAGACUGCC | 0.09
GGCAGUGCUUAACACAGCGUGGCAAAGAGGCUUUGGCUAGACUGCC | 0.04
GGCAGAGCUCAACACAGCGUGGCAAGGUGGCUGUGCCUUGACUGCC | 0.07
GGCGCAGCUCAGCACAGCGUGGCAAAGUGGCUGUGGCUAGACUGCC | 0.12
GGCAGAGCUCAACGCAACGUGGCAUGGUGGCUGUGGCUAGACUGCC | 0.03
GGCAGAGCUCAACACAGCGCGGCAAAGUGGCUGUGGUUACACUGCC | 0.04
GCCAGAGCUCAACACAGCGUGGCACAGUGGGUGUGGCUAGACUGCU | 0.09
GGCAGAGCUCAACACAGCGUGUCAAAGUGGGUAUGGCUAGACUGCC | 0.03
GGCAGGGCUCAACACAGCGUGUCAAAGUGGCUGUCGCUAAUCUGCC | 0.09
GGCAAAGCUCAACACACCGUGGCAAAGUGGCUGUGGCUAAACUGCC | 0.06
GGCAGAGCUCAACACAGCGUGGCAGAGUGUCUGUGACUAUAAUGCC | 0.01
